Assay results as given in PubChem BioAssay AID504937 (National Center for Advancing Translational Sciences (NCATS), 2011).
The whole screen tested about 340,000 compounds, of which about 20 (0.006%) were called active. This list was built around the results that the source calls inconclusive (neither active nor inactive); the mix of calls is not that of the screen. Calls follow the shape of the dose curve; as a rule, active = well fitted inhibition curve with a large enough effect; inconclusive = small, poorly fitted or top-dose-only effect; inactive = no such curve, though single readings can be large or run the other way. A potency beside an inconclusive call is a rough fit, not a confirmed value.

target: Sphingomyelin phosphodiesterase (Homo sapiens) (UniProt P17405); experiment: Inhibitors of Secretory Acid Sphingomyelinase (S-ASM): qHTS; settings: placental ASM, HMU-PC fluorogenic substrate (series up to 57.5 µM), 60 min
Sequence of UniProt P17405 (P17405 whole entry, looked up): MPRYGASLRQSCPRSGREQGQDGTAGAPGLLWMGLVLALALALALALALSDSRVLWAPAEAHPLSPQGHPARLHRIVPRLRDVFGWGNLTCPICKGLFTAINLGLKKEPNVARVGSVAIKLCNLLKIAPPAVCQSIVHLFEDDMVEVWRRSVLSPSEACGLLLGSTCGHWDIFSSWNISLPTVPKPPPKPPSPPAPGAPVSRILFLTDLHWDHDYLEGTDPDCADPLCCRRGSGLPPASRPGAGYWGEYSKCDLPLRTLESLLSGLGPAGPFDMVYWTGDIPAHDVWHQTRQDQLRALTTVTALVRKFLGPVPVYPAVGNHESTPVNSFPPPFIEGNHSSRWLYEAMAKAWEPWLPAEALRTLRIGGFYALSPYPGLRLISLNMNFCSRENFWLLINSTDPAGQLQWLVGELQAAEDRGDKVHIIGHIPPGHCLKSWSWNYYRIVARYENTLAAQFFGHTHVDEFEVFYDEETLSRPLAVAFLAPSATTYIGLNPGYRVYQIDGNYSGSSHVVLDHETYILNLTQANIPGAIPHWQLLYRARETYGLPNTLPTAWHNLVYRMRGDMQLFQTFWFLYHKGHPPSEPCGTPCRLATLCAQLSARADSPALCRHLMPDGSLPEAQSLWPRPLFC
Summary of the method: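 qHTS format. ASM enzyme prepared from human placenta hydrolyses the fluorogenic substrate HMU-PC0 (9 uM final) over 60 min at 37 °C after a 10 min compound preincubation.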
Potency is read from the fitted curve at half-maximal effect; tags tell the direction and shape of the fitted curve.

| Structure (SMILES) | Potency |
| --- | --- |
| COc1cc2c(c(OC)c1OC)-c1ccc(NC(=O)c3ccc(F)cc3)c(=O)cc1[C@@H](NC(C)=O)CC2 | inconclusive: 224 µM [inhibitor, partial curve, poor fit] |
| COc1ccc(N=Nc2cc(-c3ccccc3)ccc2O)cc1 | inconclusive: 100 µM [inhibitor, partial curve, poor fit] |
| Cc1nn2c(Nc3ccc(F)cc3)c3c(nc2c1-c1ccccc1)CCC3 | inactive |
| CN(Cc1cccc(F)c1)C(=O)c1cccc(S(=O)(=O)N2CCN(Cc3ccccc3)CC2)c1 | inactive |
| COc1cc(/C=C2/SC(=NCc3ccccc3)N(Cc3ccccc3)C2=O)ccc1O | inconclusive: 112 µM [inhibitor, partial curve, poor fit] |
| CC(=O)Nc1ccc(C=NNc2ccc(S(=O)(=O)Nc3ccccc3C(=O)O)cc2[N+](=O)[O-])cc1 | inconclusive: 56.2 µM [inhibitor, partial curve, poor fit] |
| OCCCn1c(C(CO)Nc2nc(-c3ccc(Cl)cc3)cs2)nc2ccccc21 (centres undefined) | inconclusive: 112 µM [inhibitor, partial curve, poor fit] |
| COc1ccc2sc(-c3ccccc3OC)c(-c3ccc(OCCN(C)C)cc3)c2c1 | inconclusive: 89.1 µM [inhibitor, single point] |
| COc1ccc(O)c(C(=O)c2cc(SCC(=O)O)c3nc4sc5c(c4c(=O)n3c2)CCCC5)c1 | inconclusive: 79.4 µM [inhibitor, single point] |
| CCOC(=O)CC(=O)Nc1ncnc2c1C(c1ccccc1)c1c(ccc3ccccc13)O2 (centres undefined) | inconclusive: 112 µM [inhibitor, partial curve, poor fit] |
| CCOC(=O)/C(C#N)=C/c1c(N2CCCCCC2)nc2ccccn2c1=O | inconclusive: 251 µM [inhibitor, partial curve, poor fit] |
| C[C@@H]1CN([C@H](C)CO)C(=O)Cc2cc(NC(=O)Nc3ccccc3)ccc2O[C@@H]1CN(C)C(=O)Nc1ccc2c(c1)OCO2 | inconclusive: 282 µM [inhibitor, partial curve, poor fit] |
| Cc1nnc(N/N=C/c2cc([N+](=O)[O-])c(N3CCC(C)CC3)cc2N2CCC(C)CC2)n1N | inconclusive: 100 µM [inhibitor, partial curve] |
| CCOc1cc(/C=C(\C#N)C(=O)Nc2cccc(C(=O)O)c2)cc(Br)c1OC(=O)c1ccc(OC)cc1 | inconclusive: 63.1 µM [inhibitor, single point] |
| COc1ccccc1NC(=O)C(C)OC(=O)CSCC(=O)Nc1ccc(C)cc1C (centres undefined) | inactive |
| O=C(Cc1coc2ccc3ccccc3c12)NCc1ccccc1 | inactive |
| C#CCOCCOCCOCCNc1nc(N2CCN(C(=O)CCCCCCCCCCNC(=O)Cn3cc(CCCCCN)nn3)CC2)nc(N2CCN(C(=O)CCCCCCCCCCNC(=O)[C@H]([C@@H](C)CC)n3cc(CCCCCN)nn3)CC2)n1 | inconclusive: 200 µM [inhibitor, partial curve, poor fit] |
| Cc1ccc(S(=O)(=O)Oc2cccc(/C=N/Nc3ccc(C(=O)O)cc3)c2)cc1 | inactive |
| O=C(CN1C(=O)CCC1=O)Nc1nc(-c2ccc(Oc3ccccc3)cc2)cs1 | inconclusive: 89.1 µM [inhibitor, single point] |
| CC1=NN(c2ccccc2)C(=O)/C1=C\C=C1/N(C)c2ccccc2C1(C)C | inconclusive: 126 µM [inhibitor, partial curve, poor fit] |

| Structure (SMILES) | Potency |
| --- | --- |
| CCCCCCCCCCOC(=O)Cn1c(COc2ccccc2)[n+](C)c2ccccc21 | inconclusive: 70.8 µM [inhibitor, partial curve] |
| O=C(Nc1ccc(S(=O)(=O)NC2=NCCCCC2)cc1)c1ccc2ccccc2n1 | inactive |
| COc1ccc(S(=O)(=O)NNC(=O)c2cc3cc4ccccc4nc3s2)cc1 | inconclusive: 126 µM [inhibitor, partial curve, poor fit] |
| CN(C)c1ccc(C=NNC(=O)c2cccc3ccccc23)c(Cl)c1 | inactive |
| c1ccc(C2=Nn3c(nnc3-c3cc(-c4ccccc4)n[nH]3)SC2)cc1 | inconclusive: 70.8 µM [inhibitor, partial curve, poor fit] |
| O=[N+]([O-])c1ccc(O)c(/C=N/n2cnc3ccccc32)c1 | inconclusive: 141 µM [inhibitor, partial curve, poor fit] |
| CCc1nnc(NS(=O)(=O)c2ccc(N=Cc3c(C)[nH]n(-c4ccc(Cl)cc4)c3=O)cc2)s1 | inconclusive: 89.1 µM [inhibitor, partial curve, poor fit] |
| CCCCn1c(/N=C/c2ccc(N(C)C)cc2)nc2ccccc21 | inconclusive: 251 µM [inhibitor, partial curve, poor fit] |
| COc1ccc(CCNC(=O)c2ccc(CS(=O)Cc3ccc(C)cc3)o2)cc1OC (centres undefined) | inactive |
| O=C(Nc1cccc(-c2nc3ccccc3s2)c1)c1cc(-n2cnnc2)ccc1Cl | inconclusive: 79.4 µM [inhibitor, partial curve, poor fit] |
| Cc1ccccc1-c1oc(C)c(C)[n+]1[O-] | inactive |
| Cc1noc(NS(=O)(=O)c2ccc(N/C=C\C(=O)c3ccc4c(c3)OCO4)cc2)c1C | inactive |
| Cc1ccc(/C=N/NC(=O)CCCOc2ccc(Cl)cc2Cl)cc1 | inconclusive: 178 µM [inhibitor, partial curve, poor fit] |
| O=S(=O)(c1ccc(-c2nnc(SCc3ccccc3)o2)cc1)N1CCCC1 | inconclusive: 1410 µM [inhibitor, partial curve, poor fit] |
| COc1ccccc1CN1CCC(n2nccc2NC(=O)CCCc2ccccc2)CC1 | inactive |
| CCn1c(=O)c(=O)[nH]c2cc(C(=O)NC3CC3)ccc21 | inactive |
| CCCCOc1ccc(C(=O)OCC(=O)c2c(N)n(C)c(=O)n(C)c2=O)cc1 | inconclusive: 224 µM [inhibitor, partial curve, poor fit] |
| CC1=CC(C)(C)N2C(=O)C3(C(C#N)=C(N)Oc4cc(O)ccc43)c3c(C)c(C)cc1c32 (centres undefined) | inconclusive: 100 µM [inhibitor, partial curve, poor fit] |
| CC(=O)Nc1ccc(NC2=CC(=O)c3ccccc3C2=O)cc1 | inactive |
| CCCCCCSc1ccc(-c2nc3ccc(Cl)cn3c2NC2CCCCC2)cc1 | inactive |

| Structure (SMILES) | Potency |
| --- | --- |
| O=C1/C(=C/c2cccc(Br)c2)SC(=S)N1CCC(=O)N(CCO)c1ccccc1 | inconclusive: 126 µM [inhibitor, partial curve, poor fit] |
| CCCn1c(N)c(N(CCOC)C(=O)CSc2cc(C)c3ccccc3n2)c(=O)[nH]c1=O | inactive |
| Cc1c(N2C(=O)/C(=C\c3cccc4ccccc34)SC2=S)c(=O)n(-c2ccccc2)n1C | inconclusive: 316 µM [inhibitor, partial curve, poor fit] |
| Cc1cccc(N2CCN(C(=O)c3ccc(S(=O)(=O)N(C)c4ccccc4)cc3)CC2)c1C | inactive |
| O=C(Nc1cccc(Br)c1)c1ccc2c(c1)SC1=NS(=O)(=O)CCN12 | inconclusive: 112 µM [inhibitor, partial curve, poor fit] |
| CC(C)CS(=O)(=O)C1=NSC2=NC(=O)/C(=C\c3ccc(OC(=O)c4ccco4)cc3)C(=N)N21 | inconclusive: 10 µM [inhibitor, partial curve, poor fit] |
| CC(/C=C1\SC(=S)N(NC(=O)c2ccccc2C)C1=O)=C\c1ccccc1 | inconclusive: 224 µM [inhibitor, partial curve, poor fit] |
| N#CC(C#N)=C(Nc1ccc(F)cc1)SCc1cccc(Br)c1 | inconclusive: 100 µM [inhibitor, partial curve, poor fit] |
| Clc1ccc(Cn2cc(/C=N/n3cnnc3)c3ccccc32)c(Cl)c1 | inconclusive: 79.4 µM [inhibitor, single point] |
| O=C(CNC(=O)c1ccco1)N=Nc1c(O)[nH]c2ccc([N+](=O)[O-])cc12 | inconclusive: 100 µM [inhibitor, partial curve, poor fit] |
| Cc1cc2[nH]c(=O)c(=O)[nH]c2cc1S(=O)(=O)N1CCN(c2cccc(Cl)c2)CC1 | active: 20 µM |
| O=C(CC1C(=O)NCCN1C(=O)Nc1ccc(Cl)cc1)Nc1ccc(F)cc1 (centres undefined) | inconclusive: 251 µM [inhibitor, partial curve, poor fit] |
| Cc1ccc(-c2csc(NC(=O)C3CC=CCC3C(=O)O)c2C(=O)OC(C)C)cc1 (centres undefined) | inconclusive: 79.4 µM [inhibitor, single point] |
| COc1ccc(C)cc1N(C(=O)COc1ccccc1)c1nc2ccccc2s1 | inconclusive: 12.6 µM [inhibitor, partial curve, poor fit] |
| FC(F)(F)c1ccc(N2CCN(c3cc(-c4ccccc4)nc4ncnn34)CC2)nc1 | inconclusive: 100 µM [inhibitor, partial curve] |
| COc1nc(=O)n(C2CCCO2)cc1C (centres undefined) | inactive |
| Cc1ccc(Nc2ccc(C(N)=O)cc2[N+](=O)[O-])cc1C | inconclusive: 562 µM [inhibitor, partial curve, poor fit] |
| Cc1cc2cc3c(cc2nc1SCC(=O)N1c2ccccc2CC1C)OCO3 (centres undefined) | inconclusive: 501 µM [inhibitor, partial curve, poor fit] |
| CCOc1ccc(CCN2C(=S)N([C@@H](CC(C)C)CN3CCCC3CN3C(=S)NC[C@@H]3Cc3ccc(O)cc3)C[C@@H]2Cc2ccc(O)cc2)cc1 (some centres undefined) | inconclusive: 89.1 µM [inhibitor, single point] |
